Structures are written as SMILES. About 540 (0.36%) of roughly 150,000 compounds showed an effect of 50% or more. The list shows a part of the results.

Usually % Inhibition stands for the relative decrease from the control value, in per cent.

The subject of this experiment is Plasmodium falciparum. Description: Primary screen in NF54 nanoGlo assay, in single point, at 2uM, 72h; a lower Z score goes with more inhibition. It is filed as functional, Erythrocyte. The following applies: timepoint 72 hour.
In the case of `Cc1onc(-c2ccccc2Cl)c1C(=O)Nc1cccc(S(=O)(=O)N2CCOCC2)c1`, the “% Inhibition” value was -13% and the Z score is 1.81.
`CCOC(=O)[C@]12CCCN[C@@H]1CCN(C(=O)OCc1ccccc1)C2`: the “% Inhibition” value was -15% and the Z score was found to be 2.16.
For `COc1cccc(Nc2nnc(CC(=O)N3CCCCC3)s2)c1`, the “% Inhibition” value was -19% and the Z score is listed as 2.24.
For `CC[C@@H](C(=O)OC)n1nc(C2CCNCC2)n(Cc2ccccc2)c1=O`, the “% Inhibition” value was -10% and the Z score was 1.1.
For `O=C1C[C@H](c2ccc(OCc3ccccc3Cl)cc2)c2cnn(-c3nc4ccccc4s3)c2N1`, in that order: -10% and 1.49.
In the case of `Cc1oc(-c2ccc3ccccc3c2)nc1Cn1cccn1`, the “% Inhibition” value stood at 5% and the Z score is -0.87.
For `Cc1ccc(OCCN(C)S(=O)(=O)N2CCCCC2)c(Cl)c1`, the “% Inhibition” value was -7% and the Z score is given as 1.09.
On the same counts, the results for `COc1ccccc1-n1nc(CN(C(=O)CC(C)(C)C)C2CC2)c2c1CCN(Cc1ccccc1F)C2` are -14% and 1.34.
Turning to `COc1ccccc1CNC(=O)c1ccccc1N1C(=O)[C@@H]2Cc3c([nH]c4ccccc34)C(c3ccccc3C)N2C1=O` (stereo partly drawn), the “% Inhibition” value was -6% and the Z score was 0.91.
Consider `Cc1nc(NCCc2ccc3c(c2)OCO3)cc([C@H]2C[C@@H](O)C2)n1`, for which the “% Inhibition” value worked out at 1% and the Z score is -0.09.
In the case of `CC(=O)Nc1ccc(C(=O)O[C@@H](C)C(N)=O)cc1`, the “% Inhibition” value is recorded as -8% and the Z score was 1.17.
For `COCCn1cc(C(=O)Nc2ccc3ncn(C(C)C)c(=O)c3c2)c2ccccc2c1=O`, in that order: -1% and 0.15.
On to `COc1cc2ccccc2cc1C(=O)Nc1cc(C)nn1C`, for which the “% Inhibition” value was 1% and the Z score is reported as -0.16.
For `N=C(NOS(=O)(=O)c1ccc2ccccc2c1)c1cccnc1`, the “% Inhibition” value is given as -10% and the Z score stood at 1.42.
As to `COc1ccc(CC(=O)N2CCC(Oc3ccc(Cl)cn3)CC2)cc1OC`, the “% Inhibition” value is -10% and the Z score came to 1.51.
`COCCc1nc(CCn2nc(C)cc2C)n(CC(F)(F)F)n1`: the “% Inhibition” value was determined as 2% and the Z score was -0.36.
As to `Cc1cccc2c1nc1n2[C@@H](CNC2CCC2)COC1`, the “% Inhibition” value is listed as 32% and the Z score is reported as -3.69.
Regarding `CC1CCN(S(=O)(=O)NC(C)C2CC3CCC2C3)CC1` (stereo not drawn), the “% Inhibition” value was -3% and the Z score is given as 0.66.
Take `Cc1ccncc1C(=O)N1CCC(Cc2ccc(CN3CCCC3)cc2)CC1`: the “% Inhibition” value is listed as -10% and the Z score is 2.01.
Regarding `CCn1nccc1C(=O)Nc1nn(CC(F)(F)F)c2cc(OC(C)C)ccc12`, the “% Inhibition” value is on record as -9% and the Z score is listed as 1.18.
Take `COC[C@H]1C[C@@H](NC(=O)C2CCCC2)[C@H](O)[C@@H]1O`: the “% Inhibition” value turned out to be 30% and the Z score is -3.41.
As for `Cc1ccc(C(=O)N(C)[C@@H](C)C2CC2)s1`, the “% Inhibition” value is -11% and the Z score was found to be 1.25.
On the same counts, the results for `CCC(C)N(C(=O)CC1CC1)C(C)CC` (stereo not drawn) are -16% and 1.75.
On to `CC(C)[C@@H]1CCCCN1C(=O)Nc1cnn(-c2ccccn2)c1`, for which the “% Inhibition” value is -12% and the Z score is 1.1.
`Cc1nnsc1C(=O)NCc1cc(-c2ccncc2)n(C2CCCC2)n1`: the “% Inhibition” value was 9% and the Z score was -1.05.
For `CC[C@@H](C(=O)NCC1(COC)CC1)n1cccn1`, in that order: -6% and 0.64.
Consider `Cc1cccc2nnc(-c3cnc(C(C)C)nc3)n12`, for which the “% Inhibition” value is listed as -8% and the Z score is listed as 1.13.
For the compound `Cn1cc(CNC(=O)c2[nH]nc3c2CCCC3)c(NC(=O)c2[nH]nc3c2CCCC3)n1`, the “% Inhibition” value is listed as -8% and the Z score worked out at 0.77.
Regarding `COC(=O)CC1CN(C(C)Cc2ccc3ccccc3n2)CCO1` (stereo not drawn), the “% Inhibition” value is on record as -4% and the Z score is 0.8.
As to `Cc1ccc(CN2CCCn3nc(C(=O)NCC(=O)N4CCN(C)CC4)cc3C2=O)cc1`, the “% Inhibition” value is -13% and the Z score was 2.27.
As to `CCn1ncc(Br)c1C(=O)N[C@@H](C)c1ncc(C)s1`, the “% Inhibition” value is listed as -17% and the Z score came to 2.75.
As to `Cc1nc(C)c(CC(=O)Nc2ccc(C(N)=O)cc2)c(=O)[nH]1`, the “% Inhibition” value is listed as -36% and the Z score turned out to be 4.24.
In the case of `COc1ccc(C[n+]2cccc(C(=O)Nc3c(C)cccc3C)c2)cc1OC`, the “% Inhibition” value is reported as -8% and the Z score was 1.25.
For `CCn1ncc(NC(=O)c2cc(-c3ccccc3)on2)c1C`, the “% Inhibition” value worked out at 34% and the Z score is on record as -4.59.
Turning to `CCc1noc(C)c1CNCc1ccnn1-c1ccccc1OC`, the “% Inhibition” value was found to be 0% and the Z score is recorded as 0.04.
As for `CCc1noc(NC(C)=O)c1-c1ccc(C)c(S(=O)(=O)N[C@@H](C)CC)c1`, the “% Inhibition” value was -4% and the Z score is given as 0.59.
Turning to `CC(=O)Nc1nc2ccc(NC(=O)NCc3ccc(C)cc3)cc2s1`, the “% Inhibition” value is reported as -7% and the Z score was 1.09.
Take `Clc1cccc2c1OCCN2Cc1cncnc1`: the “% Inhibition” value is reported as -6% and the Z score worked out at 0.66.
`O=C(C1=CCCC1)N1CCC[C@@]2(C1)OCc1ccccc12`: the “% Inhibition” value is 1% and the Z score was -0.12.
`Cc1cc(O)cc(=O)n1CCc1ccccc1`: the “% Inhibition” value is on record as -8% and the Z score turned out to be 1.18.
For the compound `O=S(=O)(Cc1ccccc1)NCCN1CCCCC1`, the “% Inhibition” value is on record as -15% and the Z score stood at 1.57.
Take `O=S(=O)(c1ccc(F)cc1)N1CCCO1`: the “% Inhibition” value is -7% and the Z score is 1.29.
For `O=C([C@@H]1CCCc2[nH]nnc21)N1CC(N2CCCC2=O)C1`, the “% Inhibition” value came out at 13% and the Z score is -1.77.
Turning to `CCN1CCC(Nc2ncnc3c2cnn3-c2ccccc2)CC1`, the “% Inhibition” value came out at 2% and the Z score is recorded as -0.24.
On to `Cc1cc(O[C@H]2CCN(C(=O)Cc3cccs3)C2)nc(C)n1`, for which the “% Inhibition” value is recorded as -7% and the Z score is given as 1.06.
Turning to `CC(NC(=O)C1CCCN(C(=O)c2cccs2)C1)c1cccnc1` (stereo not drawn), the “% Inhibition” value is listed as -13% and the Z score was 1.36.
As for `C[C@@H](c1nnnn1-c1ccccc1)N1CCC(Cn2ccnn2)CC1`, the “% Inhibition” value is given as -13% and the Z score came out at 1.26.
For the compound `COc1cc(F)c(C(C)NC(=O)N2CC(C)OCC2C)cc1OC` (stereo not drawn), the “% Inhibition” value is listed as -1% and the Z score is 0.09.
For `CC(NC(=O)C1CCc2nn(C)c(=O)cc2C1)c1ccc(F)cc1` (stereo not drawn), the “% Inhibition” value was -10% and the Z score is 1.24.
For the compound `CC(=O)NC1(C(=O)Nc2ccc(F)c(N3CCCC3=O)c2)CCCC1`, the “% Inhibition” value is -13% and the Z score was determined as 2.66.
In the case of `CC(C)n1ccc(CN2CCC[C@H](c3cc(C(F)(F)F)[nH]n3)C2)n1`, the “% Inhibition” value was found to be 29% and the Z score is -0.07.
`CC[C@H]1CN(C(=O)N2CCC(C(=O)NCCN3CCOCC3)CC2)c2cc(C)ccc2O1`: the “% Inhibition” value is -4% and the Z score is reported as 0.77.
As for `O=C(c1[nH]nc2c1CCc1ccccc1-2)N1CCN(Cc2ccc3c(c2)OCO3)CC1`, the “% Inhibition” value worked out at 4% and the Z score was -0.36.
On the same counts, the results for `Cc1cc(C)cc(C2=CCN(C(=O)CN3C(=O)NC4(CCCC4)C3=O)CC2)c1` are 12% and -1.65.

These data come from ChEMBL document CHEMBL4888484, “Replenishing the malaria drug discovery pipeline: Screening and hit evaluation of the MMV Hit Generation Library 1 (HGL1) against asexual blood stage Plasmodium falciparum ,using a nano luciferase reporter read-out” (2022).
